According to PubChem BioAssay AID485281 (National Center for Advancing Translational Sciences (NCATS), 2010):
“And” between values parts separate entries of the source, which are not always exact repeats. Equal entries are not always repeated. Out of some 350,000 compounds screened, about 260 (0.074%) were called active. The shares of active, inactive and inconclusive entries below differ from those in the screen. The call rests on the fitted dose curve; in most records, active means well fitted inhibition curve with a large enough effect; inconclusive means small, poorly fitted or top-dose-only effect; inactive means no such curve, though single readings can be large or run the other way. A potency beside an inconclusive call is a rough fit, not a confirmed value.

What follows are compounds tested against Ferritin light chain (Equus caballus) (UniProt P02791) (assay: qHTS Assay for Identification of Novel General Anesthetics). Details: apoferritin/1-aminoanthracene competitive binding, fluorescence; activity change, negative = displacement: at 77.5 µM (top of the series).
UniProt P02791, sequence (P02791 whole entry, looked up): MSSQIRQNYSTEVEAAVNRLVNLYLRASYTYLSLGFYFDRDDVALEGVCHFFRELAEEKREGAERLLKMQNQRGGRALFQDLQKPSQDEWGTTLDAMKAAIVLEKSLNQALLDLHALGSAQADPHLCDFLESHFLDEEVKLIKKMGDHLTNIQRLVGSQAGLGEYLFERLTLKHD
Outline: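 Steps: apoferritin (10 uM) was premixed with half-saturated 1-AMA in PBS, compounds were pin-transferred, plates stood 10 min at room temperature, fluorescence was read at 380/535 nm, and curves were fitted with a Hill equation.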
Further: nearly all actives have a fitted effect of over 20% in size.
On the % scale 0 is the no-effect control and ±100 the full control effect; potency means the concentration at half of the fitted maximal effect; tags describe the fitted curve by direction and shape.

SMILES	Potency	activity change, negative = displacement
CCC(C)(C)n1nnnc1CN1CCN(c2nc3cc(OC)ccc3cc2C#N)CC1	inconclusive: 11.2 µM [inhibitor, partial curve]	–
COCCCN1C(=O)c2ccc(C(=O)NCc3ccccn3)cc2C1=O	–	inactive: -11.9%
CC(=O)N(c1ccc(Br)cc1)C1C=CS(=O)(=O)C1 (centres undefined)	–	inactive: -5.32%
Cc1cc2c3c(c1C)C1(C(=O)N3C(C)(C)CC2C)C(C#N)=C(N)Oc2cc(O)ccc21 (centres undefined)	inconclusive: 50.1 µM [inhibitor, single point]	–
CCOC(=O)c1sc(SCC(=O)Nc2ccc(N(C)C)cc2)nc1N	inconclusive: 31.6 µM [inhibitor, partial curve]	–
N#CC(Sc1ccccn1)c1ccc(Cl)cc1Cl (centres undefined)	inconclusive: 25.1 µM [inhibitor, single point]	–
CCOC(=O)c1nnn2c1nc(N1CCOCC1)c1ccccc12	–	inactive: -5.56%
COc1cc(/C=N\NC(=O)CNC(=O)C2COc3ccccc3O2)ccc1O (centres undefined)	inconclusive: 39.8 µM [inhibitor, single point]	–
Nc1ccc(Sc2ccc([N+](=O)[O-])cc2)cc1	active: 11.2 µM	–
CCOc1ccc(C(=O)NC(=S)Nc2ccc(NC(=O)C(C)C)cc2)cc1[N+](=O)[O-]	inconclusive: 31.6 µM [inhibitor, single point]	–
CCOC(=O)C1=C(C)Nc2nc(=S)[nH]n2C1c1ccc(Cl)cc1 (centres undefined)	inconclusive: 35.5 µM [inhibitor, partial curve]	–
CCCCC1=CC2=CC(=O)C(C)(OC(=O)CCc3ccccc3)C(=O)C2=CO1 (centres undefined)	inconclusive: 50.1 µM [inhibitor, single point]	–
O=C(Nc1ccc(N2CCOCC2)cc1)c1cc2c(s1)CCCC2	inconclusive: 39.8 µM [inhibitor, single point]	–
CCC(C)(C)C1CCc2[nH]nc(C(=O)NN)c2C1 (centres undefined)	inconclusive: 28.2 µM [inhibitor, partial curve]	–
COc1ccc([C@]23Cc4ccccc4C(O2)C2=C(CC4(CCCCC4)OC2=O)O3)cc1	inconclusive: 2.24 µM [inhibitor, partial curve]	–
CC(C)CCNC(=O)CSCc1cnn(-c2ccccc2)c1-n1cccc1	–	inactive: 2.89%
CCCCCOc1ccc(NC(=O)C(=O)NCC2CCCN2CC)cc1 (centres undefined)	inconclusive: 7.08 µM [inhibitor, full curve, poor fit]	–
CCc1ccc(-c2ccc(SCC(=O)NCC3CCCO3)nn2)cc1 (centres undefined)	–	inactive: -7.53%
NC(=O)c1ccc(NCC2COc3ccccc3O2)c([N+](=O)[O-])c1 (centres undefined)	inconclusive: 22.4 µM [inhibitor, partial curve]	–
O=C(Nc1ccc([N+](=O)[O-])cn1)c1cc(-c2cccc(Cl)c2)nc2ccccc12	–	inactive: -2.37%
Cc1nc(Nc2ccccc2)sc1C(=O)Nc1ccccc1	–	inactive: 6.57%
CC(C)(C)c1ccc(OCC(=O)Nc2ccncc2)c(Br)c1	inconclusive: 35.5 µM [inhibitor, partial curve]	–
Cc1cccc(NC(=S)NC(=O)/C=C/c2ccco2)c1	inconclusive: 31.6 µM [inhibitor, partial curve]	–

SMILES	Potency	activity change, negative = displacement
COc1ccc2cc(CCNC(=O)c3cc4ccccc4o3)c(=O)[nH]c2c1	–	inactive: -12%
CN1CC(=O)NC1=NC(=O)C12CC3CC(CC(C3)C1)C2	inconclusive: 39.8 µM [inhibitor, partial curve]	–
O=C(Nc1cccc(Cl)c1)c1csnn1	inconclusive: 31.6 µM [inhibitor, single point]	–
COC(=O)c1ccsc1NC(=O)CCc1ccccc1	–	inactive: -2.94%
O=C1C2C3CCC(C3)C2C(=O)N1CNc1ccc(F)cc1 (centres undefined)	inconclusive: 44.7 µM [inhibitor, single point]	–
COc1ccc(NS(=O)(=O)c2cccc(C(=O)N/N=C/c3cccs3)c2)cc1	inconclusive: 10 µM [inhibitor, full curve, poor fit]	–
COc1cccc(/C=N/Nc2nc(Nc3ccccc3)nc(-n3nc(C)cc3C)n2)c1O	inconclusive: 5.01 µM [inhibitor, partial curve]	–
N=C1/C(=C\c2ccc(-c3cccc(C(=O)O)c3)o2)C(=O)N=C2SC=C(c3ccccc3)N12	inconclusive: 50.1 µM [inhibitor, single point]	–
O=c1cc(CSc2ccccc2)[nH]c(=S)[nH]1	inconclusive: 28.2 µM [inhibitor, partial curve]	–
CCOC(=O)N1CCN(C(=O)c2ccc(Cn3c(=S)[nH]c4cc5c(cc4c3=O)OCO5)cc2)CC1	–	inactive: 2.09%
O=C(NC1CCCC1)c1ccc(COc2ccccc2Br)o1	inconclusive: 5.62 µM [inhibitor, full curve, poor fit]	–
COc1ccc(NC(=O)CSCC(=O)Nc2ccc(S(=O)(=O)N3CCCCC3)cc2)cc1	inconclusive: 25.1 µM [inhibitor, single point]	–
Cc1cccc(N(C)c2ncnc3onc(-c4ccc(F)cc4)c23)c1C	inconclusive: 28.2 µM [inhibitor, partial curve]	–
Cc1cc(C)c(NC(=S)NCCCSC2CCCCC2)c(C)c1	–	inactive: 0.189%
COc1ccc(OCC(O)CNC(=O)Nc2ccc(C(C)(C)C)cc2)cc1 (centres undefined)	inconclusive: 25.1 µM [inhibitor, partial curve]	–
COc1ccc(C(=O)/C=C2/C(=O)Nc3ccccc32)cc1	–	inactive: 1.76%
Cc1ccc(NC(=O)C2COc3ccccc3O2)c(C)c1 (centres undefined)	inconclusive: 44.7 µM [inhibitor, single point]	–
COC(=O)[C@@H]1CCCN1C(=O)c1cc(COc2cccc3cccnc23)on1	inconclusive: 25.1 µM [inhibitor, partial curve]	–
CCCCOc1ccc(C2C(C(=O)c3cccs3)=C(O)C(=O)N2CCN2CCOCC2)cc1 (centres undefined)	inconclusive: 44.7 µM [inhibitor, single point]	–
Cc1ccc(Cl)cc1N1CCN(C(=O)c2cn(C)c3ccc(S(=O)(=O)N(C)C4CCCCC4)cc3c2=O)CC1	inconclusive: 50.1 µM [inhibitor, single point]	–
CN1C(=O)/C(=C/c2ccccc2OCc2ccccc2)NC1=S	inconclusive: 14.1 µM [inhibitor, single point]	–
O=C(Nc1cnn(Cc2ccccc2)c1)NC12CC3CC(CC(C3)C1)C2	active: 15.8 µM	–
COc1ccc(NC(=S)N2CCCCCC2)cc1OC	inconclusive: 28.2 µM [inhibitor, partial curve]	–

SMILES	Potency	activity change, negative = displacement
O=C1N(CN2CCN(c3cccc(Cl)c3)CC2)c2ccccc2C12OCCCO2	–	inactive: -0.771%
Cc1ccc(OCCCn2ccnc2)c(Br)c1	inconclusive: 39.8 µM [inhibitor, partial curve]	–
O=C(CSc1ncn(-c2ccccc2)n1)Nc1nc2c(s1)CCCC2	inconclusive: 50.1 µM [inhibitor, single point]	–
CCOc1cc(S(=O)(=O)N2CCCCCC2)ccc1F	inconclusive: 35.5 µM [inhibitor, partial curve]	–
COCC(C)N1C(=O)Cc2c1nc(N)c1c(N)nc(N3CCN(c4ccccc4F)CC3)c(C#N)c21 (centres undefined)	inconclusive: 39.8 µM [inhibitor, single point]	–
CC(C)Oc1ccc(CNC(=S)N/N=C/c2cccnc2)cc1	inconclusive: 14.1 µM [inhibitor, partial curve]	–
COc1ccccc1NC(=O)CCn1nc(-c2ccccc2)c2ccccc2c1=O	–	inactive: -8.32%
COc1cccc(-c2ccc(=O)n(CC(=O)Nc3ccc(C(=O)N4CCCC4)cc3)n2)c1	inconclusive: 39.8 µM [inhibitor, single point]	–
O=C(Nc1ccc(S(=O)(=O)N2CCCCCC2)cc1)c1[nH]ncc1[N+](=O)[O-]	active: 12.6 µM	–
CCOC(=O)c1c(C)oc2c1c(CN1CCN(C(=O)OCC)CC1)c(O)c1ccccc12	–	inactive: -18.5%
Cc1ccc(-n2c(SCC(=O)N3CC(=O)Nc4ccccc43)nc3ccccc3c2=O)cc1C	inconclusive: 4.47 µM [inhibitor, full curve, poor fit]	–
O=C(Cc1cc(=O)[nH][nH]1)N/N=C/C=C/c1ccccc1	inconclusive: 31.6 µM [inhibitor, partial curve] and inconclusive: 28.2 µM [inhibitor, partial curve]	–
CN1CCO/C1=C(\C(Cl)=C(Cl)Cl)[N+](=O)[O-]	–	inactive: 1.2%
O=C(c1ccc([N+](=O)[O-])s1)N1CCCc2ccccc21	inconclusive: 31.6 µM [inhibitor, single point]	–
Cc1nc(SCCC(C)C)c([N+](=O)[O-])[nH]1	inconclusive: 31.6 µM [inhibitor, partial curve]	–
Oc1ccc(CN2CCc3ccccc3C2)c2cccnc12	inconclusive: 5.01 µM [inhibitor, partial curve]	–
O=C(Cc1ccc(Cl)cc1)N1CCN(c2ccc(F)cc2)CC1	–	inactive: -13.2%
O=C(Nc1ccccc1C(=O)Nc1ccncc1)c1cccc([N+](=O)[O-])c1	inconclusive: 3.98 µM [inhibitor, full curve]	–
O=C1C2C3CCC(C3)C2C(=O)N1Cc1ccccc1 (centres undefined)	inconclusive: 35.5 µM [inhibitor, single point]	–
Cc1ccc(NC(=O)CS(=O)CC(=O)Nc2ccc3c(c2)OCO3)cc1Cl (centres undefined)	inconclusive: 6.31 µM [inhibitor, full curve]	–
COc1ccc(C(=O)N(C(C)C)C(C)C)c(OC)c1	inconclusive: 20 µM [inhibitor, partial curve]	–
COc1cc(/C=C2\N=C(C)OC2=O)cc(Cl)c1OC(C)=O	–	inactive: 1.3%
COC(=O)c1nc(Cl)c(Cl)c(N)c1Cl	–	inactive: -7.46%
